# Source: the supplement of paper PMC8728848
# This is one part of the list.
# B1: PNGase F (Flavobacterium meningosepticum) (protein)
# chain: GIPAPADNTVNIKTFDKVKNAFGDGLSQSAEGTFTFPADVTAVKTIKMFIKNECPNKTCDEWDRYANVYVKNKTTGEWYEIGRFITPYWVGTEKLPRGLEIDVTDFKSLLSGNTELKIYTETWLAKGREYSVDFDIVYGTPDYKYSAVVPVVQYNKSSIDGVPYGKAHTLALKKNIQLPTNTEKAYLRTTISGWGHAKPYDAGSRGCAEWCFRTHTIAINNSNTFQHQLGALGCSANPINNQSPGNWTPDRAGWCPGMAVPTRIDVLNNSLIGSTFSYEYKFQNWTNNGTNGDAFYAISSFVIAKSNTPISAPVVTNLDPHHHHHH
# Columns and labels:
# Assay in all cases: glycan array binding signal (z-score within array); higher = stronger binding
# Details in all cases: glycan notation: IUPAC condensed, linker removed
# [1] = target: Neu5Ac(a2-3)Gal(b1-3)GlcNAc(b1-2)Man
# Outline: (§1)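 The binding signal is a Z-score computed within each array and averaged over linkers. Arrays of the same protein sequence at different concentrations or buffers were also averaged together. Data originate from 3228 arrays in the Consortium for Functional Glycomics database, kept only where the protein sequence was available.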
# [2] = target: Neu5Ac(a2-3)Gal(b1-3)GlcNAc(b1-2)Man(a1-3)[GlcNAc(b1-4)][Neu5Ac(a2-3)Gal(b1-3)GlcNAc(b1-2)Man(a1-6)]Man(b1-4)GlcNAc(b1-4)GlcNAc
# Outline: as §1
# [3] = target: Neu5Ac(a2-3)Gal(b1-3)GlcNAc(b1-2)Man(a1-3)[Neu5Ac(a2-3)Gal(b1-3)GlcNAc(b1-2)Man(a1-6)]Man(b1-4)GlcNAc(b1-4)GlcNAc
# Outline: as §1
# [4] = target: Neu5Ac(a2-3)Gal(b1-3)GlcNAc(b1-2)[Neu5Ac(a2-3)Gal(b1-3)GlcNAc(b1-4)]Man(a1-6)[Neu5Ac(a2-3)Gal(b1-3)GlcNAc(b1-2)Man(a1-3)]Man(b1-4)GlcNAc(b1-4)GlcNAc
# Outline: as §1
# [5] = target: Neu5Ac(a2-3)Gal(b1-3)GlcNAc(b1-3)Gal(b1-3)GlcNAc
# Outline: as §1
# [6] = target: Neu5Ac(a2-3)Gal(b1-3)GlcNAc(b1-3)Gal(b1-4)GlcNAc
# Outline: as §1
# [7] = target: Neu5Ac(a2-3)Gal(b1-3)GlcNAc(b1-3)GalNAc
# Outline: as §1
# [8] = target: Neu5Ac(a2-3)Gal(b1-3)GlcNAc(b1-6)GalNAc
# Outline: as §1
# [9] = target: Neu5Ac(a2-3)Gal(b1-3)GlcNAc6S
# Outline: as §1
# [10] = target: Neu5Ac(a2-3)Gal(b1-3)[Fuc(a1-4)]GlcNAc
# Outline: as §1
# [11] = target: Neu5Ac(a2-3)Gal(b1-3)[Fuc(a1-4)]GlcNAc(b1-3)Gal(b1-3)[Fuc(a1-4)]GlcNAc
# Outline: as §1
# [12] = target: Neu5Ac(a2-3)Gal(b1-3)[Fuc(a1-4)]GlcNAc(b1-3)Gal(b1-4)[Fuc(a1-3)]GlcNAc
# Outline: as §1
# [13] = target: Neu5Ac(a2-3)Gal(b1-3)[GlcNAc(b1-6)]GalNAc
# Outline: as §1
# [14] = target: Neu5Ac(a2-3)Gal(b1-3)[Neu5Ac(a2-6)]GalNAc
# Outline: as §1
# [15] = target: Neu5Ac(a2-3)Gal(b1-3)[Neu5Ac(a2-6)]GlcNAc(b1-3)[Fuc(a1-3)[Gal(b1-4)]GlcNAc(b1-6)]Gal(b1-4)Glc
# Outline: as §1
# [16] = target: Neu5Ac(a2-3)Gal(b1-3)]Neu5Ac(a2-3)Gal(b1-4)]GlcNAc
# Outline: as §1
# Neu5Ac(a2-3)Gal(b1-4)Glc = target: Neu5Ac(a2-3)Gal(b1-4)Glc
# Outline: as §1
# [17] = target: Neu5Ac(a2-3)Gal(b1-4)GlcNAc
# Outline: as §1
# [18] = target: Neu5Ac(a2-3)Gal(b1-4)GlcNAc(b1-2)Man
# Outline: as §1
# [19] = target: Neu5Ac(a2-3)Gal(b1-4)GlcNAc(b1-2)Man(a1-3)[GlcNAc(b1-4)][Neu5Ac(a2-3)Gal(b1-4)GlcNAc(b1-2)Man(a1-6)]Man(b1-4)GlcNAc(b1-4)GlcNAc
# Outline: as §1
# [20] = target: Neu5Ac(a2-3)Gal(b1-4)GlcNAc(b1-2)Man(a1-3)[Neu5Ac(a2-3)Gal(b1-4)GlcNAc(b1-2)Man(a1-6)]Man(b1-4)GlcNAc(b1-4)GlcNAc
# Outline: as §1
# [21] = target: Neu5Ac(a2-3)Gal(b1-4)GlcNAc(b1-2)Man(a1-3)[Neu5Ac(a2-3)Gal(b1-4)GlcNAc(b1-2)Man(a1-6)]Man(b1-4)GlcNAc(b1-4)[Fuc(a1-6)]GlcNAc
# Outline: as §1
# [22] = target: Neu5Ac(a2-3)Gal(b1-4)GlcNAc(b1-2)Man(a1-3)[Neu5Ac(a2-6)Gal(b1-4)GlcNAc(b1-2)Man(a1-6)]Man(b1-4)GlcNAc(b1-4)GlcNAc
# Outline: as §1
# [23] = target: Neu5Ac(a2-3)Gal(b1-4)GlcNAc(b1-2)[Neu5Ac(a2-3)Gal(b1-4)GlcNAc(b1-4)]Man(a1-3)[GlcNAc(b1-4)][Neu5Ac(a2-3)Gal(b1-4)GlcNAc(b1-2)[Neu5Ac(a2-3)Gal(b1-4)GlcNAc(b1-6)]Man(a1-6)]Man(b1-4)GlcNAc(b1-4)GlcNAc
# Outline: as §1
# [24] = target: Neu5Ac(a2-3)Gal(b1-4)GlcNAc(b1-2)[Neu5Ac(a2-3)Gal(b1-4)GlcNAc(b1-4)]Man(a1-3)[GlcNAc(b1-4)][Neu5Ac(a2-3)Gal(b1-4)GlcNAc(b1-4)Man(a1-6)]Man(b1-4)GlcNAc(b1-4)GlcNAc
# Outline: as §1
# [25] = target: Neu5Ac(a2-3)Gal(b1-4)GlcNAc(b1-2)[Neu5Ac(a2-3)Gal(b1-4)GlcNAc(b1-6)]Man(a1-6)[Neu5Ac(a2-3)Gal(b1-4)GlcNAc(b1-2)Man(a1-3)][GlcNAc(b1-4)]Man(b1-4)GlcNAc(b1-4)GlcNAc
# Outline: as §1
# [26] = target: Neu5Ac(a2-3)Gal(b1-4)GlcNAc(b1-3)Gal
# Outline: as §1
# [27] = target: Neu5Ac(a2-3)Gal(b1-4)GlcNAc(b1-3)Gal(b1-3)GlcNAc
# Outline: as §1
# [28] = target: Neu5Ac(a2-3)Gal(b1-4)GlcNAc(b1-3)Gal(b1-4)GlcNAc
# Outline: as §1
# [29] = target: Neu5Ac(a2-3)Gal(b1-4)GlcNAc(b1-3)Gal(b1-4)GlcNAc(b1-2)Man(a1-3)[Neu5Ac(a2-3)Gal(b1-4)GlcNAc(b1-3)Gal(b1-4)GlcNAc(b1-2)Man(a1-6)]Man(b1-4)GlcNAc(b1-4)GlcNAc
# Outline: as §1
# [30] = target: Neu5Ac(a2-3)Gal(b1-4)GlcNAc(b1-3)Gal(b1-4)GlcNAc(b1-3)Gal(b1-4)GlcNAc
# Outline: as §1
# [31] = target: Neu5Ac(a2-3)Gal(b1-4)GlcNAc(b1-3)Gal(b1-4)GlcNAc(b1-3)Gal(b1-4)GlcNAc(b1-2)Man(a1-3)[Neu5Ac(a2-3)Gal(b1-4)GlcNAc(b1-3)Gal(b1-4)GlcNAc(b1-3)Gal(b1-4)GlcNAc(b1-2)Man(a1-6)]GalNAc
# Outline: as §1
# [32] = target: Neu5Ac(a2-3)Gal(b1-4)GlcNAc(b1-3)Gal(b1-4)GlcNAc(b1-3)GalNAc
# Outline: as §1
# [33] = target: Neu5Ac(a2-3)Gal(b1-4)GlcNAc(b1-3)Gal(b1-4)GlcNAc(b1-3)[Neu5Ac(a2-3)Gal(b1-4)GlcNAc(b1-3)Gal(b1-4)GlcNAc(b1-6)]GalNAc
# Outline: as §1
# [34] = target: Neu5Ac(a2-3)Gal(b1-4)GlcNAc(b1-3)Gal(b1-4)GlcNAc(b1-6)[Gal(b1-3)]GalNAc
# Outline: as §1
# [35] = target: Neu5Ac(a2-3)Gal(b1-4)GlcNAc(b1-3)Gal(b1-4)[Fuc(a1-3)]GlcNAc
# Outline: as §1
# [36] = target: Neu5Ac(a2-3)Gal(b1-4)GlcNAc(b1-3)GalNAc
# Outline: as §1
# [37] = target: Neu5Ac(a2-3)Gal(b1-4)GlcNAc(b1-3)[Neu5Ac(a2-3)Gal(b1-4)GlcNAc(b1-6)]GalNAc
# Outline: as §1
binder,measurement,setting,value
B1,glycan array binding signal (z-score),[1],-0.187
same,glycan array binding signal (z-score),[2],-0.101
same,glycan array binding signal (z-score),[3],0.681
same,glycan array binding signal (z-score),[4],-0.159
same,glycan array binding signal (z-score),[5],-0.313
same,glycan array binding signal (z-score),[6],-0.379
same,glycan array binding signal (z-score),[7],-0.293
same,glycan array binding signal (z-score),[8],-0.327
same,glycan array binding signal (z-score),[9],-0.02
same,glycan array binding signal (z-score),[10],-0.341
same,glycan array binding signal (z-score),[11],-0.194
same,glycan array binding signal (z-score),[12],-0.214
same,glycan array binding signal (z-score),[13],-0.292
same,glycan array binding signal (z-score),[14],-0.211
same,glycan array binding signal (z-score),[15],-0.245
same,glycan array binding signal (z-score),[16],-0.394
same,glycan array binding signal (z-score),Neu5Ac(a2-3)Gal(b1-4)Glc,2.16
same,glycan array binding signal (z-score),[17],-0.336
same,glycan array binding signal (z-score),[18],1.19
same,glycan array binding signal (z-score),[19],-0.348
same,glycan array binding signal (z-score),[20],-0.403
same,glycan array binding signal (z-score),[21],-0.373
same,glycan array binding signal (z-score),[22],0.076
same,glycan array binding signal (z-score),[23],-0.348
same,glycan array binding signal (z-score),[24],-0.969
same,glycan array binding signal (z-score),[25],-0.346
same,glycan array binding signal (z-score),[26],-0.384
same,glycan array binding signal (z-score),[27],-0.394
same,glycan array binding signal (z-score),[28],-0.398
same,glycan array binding signal (z-score),[29],-0.06
same,glycan array binding signal (z-score),[30],-0.395
same,glycan array binding signal (z-score),[31],-0.01
same,glycan array binding signal (z-score),[32],-0.352
same,glycan array binding signal (z-score),[33],-0.043
same,glycan array binding signal (z-score),[34],-0.313
same,glycan array binding signal (z-score),[35],-0.37
same,glycan array binding signal (z-score),[36],-0.277
same,glycan array binding signal (z-score),[37],-0.225
